# Measurements published in the supplement of paper PMC11417369.
# ± gives the standard deviation of the averaged measurements. The list shows a part of the results.
# System: PfAP2-LT AP2 domain (GST-tagged)
# Experiment: gcPBM binding intensity (ln(normalized median fluorescence intensity)); higher = stronger DNA binding
# Procedure, shortened: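 GST-tagged P. falciparum DNA-binding domains produced in E. coli were incubated for 1 h on an Agilent 4 × 180k array of primer-extended double-stranded 36-bp intergenic genomic probes with negative controls. Binding intensity is the highest Masliner-normalised natural-log median intensity across replicate spots of either probe orientation, with bound protein detected by Alexa488 anti-GST antibody at 488 nm.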
row,Sequence,gcPBM binding intensity (ln)
1,GTGCTTATTTATACATGTACAAATGATAAGTTTGTA [XGTACX_site169],8.87 ± 0.38
2,TAAATATATTCATAAAGTACAAAGCAAAATTGTCTA [XGTACX_site7274],8.69 ± 0.45
3,GAAATAAATATATATGCATGTACTTTAATATTATTA [TGCATGCA_site904],8.96 ± 0.75
4,ATATAAAGAAAAGGAACACACAAATATATATATATA [CACACA_site463],9.56 ± 0.25
5,ATATATTATTTTAAATGTACTCATAATAGAAATGTC [XGTACX_site40],8.49 ± 0.41
6,CACACAGGTAAAAAGGTGCAGTTGAAATATTCCTCA [GTGCAC_site9730],8.91 ± 0.52
7,AAAAAAAAAAAAAAATGTACATATATATATATATAT [XGTACX_site876],9.7 ± 0.2
8,ACATATACAAGACACACACACAACGTTTTAATAAAT [CACACA_site7017],9.79 ± 0.35
9,ATAATAATATTGTGTACACAATAATTTGTCAAATCA [CACACA_site6019],8.79 ± 0.43
10,AAAAAATAATAATAATGTACAAATAAAATAAAAACA [XGTACX_site6568],9.06 ± 0.54
11,AAGGAATATGTATATACACACAGGTACATATATATA [CACACA_site441],9.35 ± 0.39
12,ATAAAAATTGAAACATGTACACATATTCATTTTATA [XGTACX_site7968],8.59 ± 0.48
13,TCGTGTGAAAATATTACACACATTTACTATAGTATC [CACACA_site7590],9.07 ± 0.32
14,ATATATTTTTACCATACACACATATAATAAATATAT [CACACA_site3722],8.91 ± 0.46
15,TTATATTATACATACACACCCATATAACATGTTTTT [CACACA_site6539],9.04 ± 0.49
16,TCATTAATATTTCATAGTACAATTTTGTCTAATTGT [XGTACX_site6720],8.64 ± 0.51
17,TATTTTTTTCTTACTACACACATATATATGCTTTCC [CACACA_site4058],9.24 ± 0.55
18,AATGGAAAAAAAAAAATAAATACAAATAAATACAAA [GTGCAC_negctrl_site407],8.71 ± 0.6
19,TCTTATTAAAATATTTATATAGGTAATCACAATATT [GTGCAC_negctrl_site568],8.69 ± 0.45
20,AGAAATAAGAAATATACACACATATATATATATATA [CACACA_site2808],9.76 ± 0.085
21,CCCCCCGTGTTATATACACACATAATCAAATAAAAT [CACACA_site4111],11.1 ± 0.44
22,TATAAAATAAGACATGCATGTTATACATATATATAT [TGCATGCA_site314],9.13 ± 0.35

row,Sequence,gcPBM binding intensity (ln)
1,TTTTGTTATGAGAGGGTGCTAATATTTGGATATAAA,8.54 ± 0.39
2,AAAAAAAGAAAAATTGCACACACTTATAAAAATATA [CACACA_site4014],8.97 ± 0.51
3,AAAAAAAAAAAAAGTAGTACATAATATGTTCCTCCT [XGTACX_site8356],8.71 ± 0.43
4,ATTATAAATTAAAATACACACATATATACCTAATAT [CACACA_site5541],8.93 ± 0.38
5,ATATATAATTACACAAATAAAAAAATAAAATGAAAT [CACACA_negctrl_site1513],8.8 ± 0.53
6,AGAATAAAAATACAAGCACACATGTATGAAATATAT [CACACA_site3213],9.46 ± 0.52
7,TGAACAATGTATAATTGTACGCAACGAAAATAAAAA [XGTACX_site1559],8.96 ± 0.38
8,ATCATGTTATATATGTGTACATATATATGATATAAT [XGTACX_site991],8.85 ± 0.33
9,ACAAAATATACAAAATGTACAAAATTTACAAAATAT [XGTACX_site6466],8.96 ± 0.52
10,AGCACAAGCACAAGCACACATTTATATATAAATACA [CACACA_site4642],9.1 ± 0.47
11,AAAAAAAAAAATAAAGAAATCAAAATTGATGAATAA [GTGCAC_negctrl_site692],8.49 ± 0.67
12,TATAAATATACACCCACACACATATATATATATATA [CACACA_site3745],9.94 ± 0.16
13,TGTGTAAACATATTCACACACATAAATTCGCATATA [CACACA_site6961],9.29 ± 0.38
14,TATATAAAAAATAAATGTACACATGTAATAATAAAA [XGTACX_site2640],8.98 ± 0.47
15,TAAATGATTGCATAATGTACATATAATTTTTTTTTT [XGTACX_site1988],8.53 ± 0.4
16,ATATGAACAAAATAAATCTCTTCAAAAATAATGTTC [GTGCAC_negctrl_site2],8.62 ± 0.43
17,TATATATATTTATGCTGTACCAAATAAGAATAGAAA [XGTACX_site7731],8.69 ± 0.35
18,ATTTTTGTACACTTCTTTTTTTTTTTTCTTTTATGT [CACACA_negctrl_site1323],9.2 ± 0.57
19,TACTTACATATAATAACACACAAGAAAAAAATAAAA [CACACA_site1033],8.94 ± 0.47
20,TACCCATGCATTTTTGCACACACATATATATATAAA [CACACA_site1429],9.39 ± 0.34
21,AGACAGCGCACAAACACACAAACACCCACCCACATA [CACACA_site451],10.1 ± 0.16
22,ATTTATTATGAACATACACACAAAAAAAAAAAGTAT [CACACA_site2054],9.2 ± 0.42
